Assay results published in patent publication US12286632B2, “Rationally-designed synthetic peptide shuttle agents for delivering polypeptide cargos from an extracellular space to the cytosol and/or nucleus of a target eukaryotic cell, uses thereof, methods and kits relating to same” (Feldan Bio Inc., priority 2016, dated 2025).
At least one peptide structure holds a part that was inferred or is arguable (an end, a ring closure or a residue). Some compounds share one wording; it may come from a single statement. Ends that are not written are not given here.

Experiments:
[1] = system: HPRT genomic DNA sequence; test: T7E1 DNA cleavage assay after CRISPR/Cas9-NLS delivery (HeLa, Jurkat, NK, NCI-H196, HCC-78, REC-1 cells); format: cell-based, Human; settings: different concentrations and exposure times; HeLa, NK, NIC-196H, HCC-78, REC-1 cells
B2M genomic DNA sequence = test: T7E1 DNA cleavage assay / % INDELs after CRISPR/Cas9-NLS or CRISPR/Cpf1-NLS delivery (HeLa, THP-1, NK, T cells); format: cell-based, Human; settings: for delivery of CRISPR/Cpf1 complex, cleavage of genomic B2M (in words): CRISPR/Cpf1 1.33 μM, crRNA 2 μM, THP-1 and NK cells, different concentrations and exposure times
Source text: The T7 endonuclease I (T7E1) can be used to detect on-target CRISPR/Cas genome editing events in cultured cells. As an overview, genomic DNA from target cells is amplified by PCR. The PCR products are then denatured and reannealed to allow heteroduplex formation between wild-type DNA and CRISPR/Cas-mutated DNA. T7E1, which recognizes and cleaves mismatched DNA, is used to digest the heteroduplexes. The resulting cleaved and full-length PCR products are visualized by gel electrophoresis.
The T7E1 assay was performed with the Edit-R™ Synthetic crRNA Positive Controls (Dharmacon #U-007000-05) and the T7 Endonuclease I (NEB, Cat #M0302S). After the delivery of the CRISPR/Cas complex, cells were lysed in 100 μL of Phusion™ High-Fidelity DNA polymerase (NEB #M0530S) laboratory with additives. The cells were incubated for 15-30 minutes at 56° C., followed by deactivation for 5 minutes at 96° C. The plate was briefly centrifuged to collect the liquid at bottom of the wells. 50-μL PCR samples were set up for each sample to be analyzed. The PCR samples were heated to 95° C. for 10 minutes and then slowly (>15 minutes) cooled to room temperature. PCR product (-5 μL) was then separated on an agarose gel (2%) to confirm amplification. 15 μL of each reaction was incubated with T7E1 nuclease for 25 minutes at 37° C. Immediately, the entire reaction volume was run with the appropriate gel loading buffer on an agarose gel (2%).
Cas9-NLS recombinant protein was prepared as described in Example 13.1. Cpf1-NLS recombinant protein was prepared as described in Example G.2. A mix composed of a Cas9-NLS recombinant protein with its respective crRNAltracrRNA, or a Cpf1-NLS recombinant protein with its respective single guide crRNA(s) (see below) targeting a nucleotide sequence of the B2M gene, was co-incubated with different concentrations of the peptides FSD10, FSD18, FSD19, FSD21, FSD22, or FSD23 and incubated with HeLa, THP-1 or NK cells for 90 sec in PBS, or for 1 h in medium without serum, or for 48 h in medium with serum, using the transduction protocols as generally described in Example 3.1a. Cells were then washed with PBS and harvested to proceed with the T7E1 protocol assay as described in Example 13.4.
FIGS. 52A-52D show the results of the cleavage of the targeted genomic B2M DNA sequence after the delivery of CRISPR/Cpf1 (1.33 μM) with crRNA−1 or crRNA−2 (2 μM) in the absence (“-ctrl”) or in the presence of the peptides FSD10, FSD18, FSD19, FSD21 or FSD23 used at different concentrations, exposure times, and in different types of cells: THP-1 (FIG. 52A), and NK (FIGS. 52B, 52C, 52D), after separation by agarose gel electrophoresis. […] Gel lanes were loaded in duplicate. Thin dashed arrows indicate the bands corresponding to the target gene, and thick solid arrows indicate the bands corresponding to the cleavage products of this target gene, which indicate the successful transduction of fully functional CRISPR genome editing complexes. We used a Bio-Rad ImageLab™ software (Version 5.2.1, Bio-Rad, http://www.bio-rad.com/en-ca/product/image-lab-software?tab=Download) to quantify the relative signal intensities of each of the different bands directly on the gels. The sum of all the bands in a given lane corresponds to 100% of the signal, and the numerical value in italics at the bottom of each lane is the sum of the relative signals (%) of only the two cleavage product bands (thick solid arrows). […]

HeLa cells = test: GFP-NLS protein transduction assay (flow cytometry: Pos cells %, viability %, relative fluorescence intensity; microscopy)
THP-1 cells = test: as above; settings: THP-1 cells, GFP-NLS 10 μM
[2] = Table B2, HeLa cells, GFP-NLS cargo
[3] = peptide 1 μM, incubation 1.5 min
[4] = peptide 2 μM, incubation 0.5 min

Row | Sequence | delivery of CRISPR/Cas9-NLS complex, cleavage of genomic HPRT (in words) [1] | delivery of CRISPR/Cpf1 complex, cleavage of genomic B2M (in words) (B2M genomic DNA sequence) | Mean % cells with GFP signal (±St. Dev.; n = 3) (HeLa cells; [2]) [%] | Mean % cells with GFP signal (±St. Dev.; n = 3) (HeLa cells; Table E1, HeLa, peptide 5 μM, GFP-NLS 10 μM, 2 min) [%] | Mean % cells with GFP signal (±St. Dev.; n = 3) (HeLa cells; Table E1, HeLa, peptide 8 μM, GFP-NLS 10 μM, 1 min) [%] | Mean % cells with GFP signal (±St. Dev.; n = 3) (HeLa cells; Table E1, HeLa, peptide 10 μM, GFP-NLS 10 μM, 1 min) [%] | Mean % cells with GFP signal (±St. Dev.; n = 3) (THP-1 cells; peptide 1 μM, incubation 1 min) [%] | Mean % cells with GFP signal (±St. Dev.; n = 3) (THP-1 cells; [3]) [%] | Mean % cells with GFP signal (±St. Dev.; n = 3) (THP-1 cells; [4]) [%] | Mean % cells with GFP signal (±St. Dev.; n = 3) (THP-1 cells; peptide 2 μM, incubation 1 min) [%] | genome-editing efficiency (T7E1) in sorted GFP-positive vs GFP-negative fractions (B2M genomic DNA sequence; T cells, FSD18 12 μM or 15 μM, data not shown) | genome editing level (T7E1), with vs without GFP-NLS (B2M genomic DNA sequence; T cells, FSD18 15 μM, FIG. 58G lanes 2 and 3)
1 | KWKLARAFARAIKKLGGSGGGSYARALRRQARTG [FSD10] | successful delivery of the CRISPR genome-editing complexes to the nucleus | successful delivery of the CRISPR genome-editing complexes to the nucleus | 73.23 ± 4.94 | 45.8 ± 4.16 | 55.9 ± 5.22 | 73.1 ± 5.24 | 42.6 ± 4.29 | 59.4 ± 3.61 | 60.5 ± 5.27 | 71.9 ± 5.63 |  | 
2 | LLKLWSRLLKLWTQGGSGGGSGRRLKAKRAKA [FSD18] | successful delivery of the CRISPR genome-editing complexes to the nucleus | successful delivery of the CRISPR genome-editing complexes to the nucleus | 77.11 ± 3.25 |  |  |  | 43.6 ± 3.55 | 41.7 ± 2.82 | 53.4 ± 4.29 | 78.3 ± 5.48 | GFP-positive cell fractions had increased genome-editing efficiency | showed the same genome editing level
